The full ranking holds about 33,000 sequences; the median of “E-score (-0.5 to 0.5)” is about -0.054, and the highest 2% start at about 0.35. This is one part of the list.
What follows are sequences tested against T1, Stb5 (UniProt P38699) (assay: PBM E-score (8-mer binding enrichment) (E-score (-0.5 to 0.5)); higher = stronger / more preferred TF binding; most listed sequences are background and not binding sites). Settings: protein concentration: 200 nM; construct: GST-full length.
T1 sequence: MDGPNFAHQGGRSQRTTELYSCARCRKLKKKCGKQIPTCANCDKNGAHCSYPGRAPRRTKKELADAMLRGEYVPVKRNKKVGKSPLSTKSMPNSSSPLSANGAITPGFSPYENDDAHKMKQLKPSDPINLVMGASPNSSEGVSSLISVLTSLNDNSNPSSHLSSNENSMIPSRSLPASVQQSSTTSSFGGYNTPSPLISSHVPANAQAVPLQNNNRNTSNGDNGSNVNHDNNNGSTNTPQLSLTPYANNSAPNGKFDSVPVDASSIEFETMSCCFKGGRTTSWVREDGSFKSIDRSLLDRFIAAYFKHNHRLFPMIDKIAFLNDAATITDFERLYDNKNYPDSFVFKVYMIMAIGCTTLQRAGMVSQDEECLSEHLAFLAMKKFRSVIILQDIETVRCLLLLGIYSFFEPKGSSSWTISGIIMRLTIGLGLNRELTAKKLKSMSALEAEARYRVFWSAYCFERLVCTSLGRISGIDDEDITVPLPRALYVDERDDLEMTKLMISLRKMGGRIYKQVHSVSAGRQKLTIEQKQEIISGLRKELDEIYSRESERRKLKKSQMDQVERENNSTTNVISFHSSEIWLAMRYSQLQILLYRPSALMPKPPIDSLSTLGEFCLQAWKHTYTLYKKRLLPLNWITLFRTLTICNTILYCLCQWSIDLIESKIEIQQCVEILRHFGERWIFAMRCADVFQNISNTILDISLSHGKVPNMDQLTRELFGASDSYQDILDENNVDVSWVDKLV
Outline: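 E-scores (a modified Wilcoxon-Mann-Whitney statistic) were assigned by the Universal PBM Analysis Suite to every ungapped eight-base word pooled with its reverse complement. The input came from universal all-10-mer Agilent arrays made double-stranded by primer extension and probed with GST-tagged yeast transcription factors at about 100-200 nM. Fluorescent anti-GST detected bound protein, and masliner normalised the scans.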

| Sequence | PBM E-score |
| --- | --- |
| ATGTTTTA | -0.165 |
| TAACCTGA | -0.0904 |
| AGAGAGCC | -0.32 |
| AGTGCACA | -0.135 |
| AATATGGC | 0.0393 |
| AGCCTGTC | -0.22 |
| CAAAATGC | 0.0603 |
| CCATGAGA | 0.0278 |
| GCTATGTA | -0.0808 |
| AGGGTTAT | -0.137 |
| ATCAGTGG | -0.194 |
| GTGGGATA | 0.0707 |
| ACATTGGG | -0.158 |
| ACCAGGCA | -0.187 |
| AGAGGGCC | -0.0658 |
| AAATTGGG | -0.181 |
| ATTCTACA | -0.142 |
| TACTTAGA | -0.235 |
| CTAACGCC | 0.316 |
| CACCCGGA | 0.218 |
| CCCCGGAC | 0.284 |
| CAACGGAG | 0.244 |
| CTTACAGC | -0.094 |
| CCACTCAG | -0.204 |
| CTTACTAC | -0.121 |

| Sequence | PBM E-score |
| --- | --- |
| ATCGCCCC | 0.101 |
| CAGGACTG | -0.144 |
| GGAGGGAC | -0.0156 |
| ATTTTTGG | -0.077 |
| CACACCCA | -0.0756 |
| ACACTAAC | -0.147 |
| ACTAGTGC | -0.15 |
| CGATAGAC | 0.0882 |
| GTCTCCAA | -0.179 |
| GTACTAAA | 0.127 |
| CCTCCTAC | -0.0946 |
| CCGACGTA | 0.27 |
| CCTTCATA | 0.00757 |
| GCCCCGCC | 0.403 |
| CGTCGTGA | 0.0154 |
| ACTAACGA | -0.0378 |
| AGGGGACT | -0.0836 |
| GAGTTAGC | -0.059 |
| ACCTTTGG | 0.0325 |
| GTGCGCAA | -0.142 |
| CGAACGCG | 0.149 |
| TCCCTCGA | -0.179 |
| CGTTTCGC | 0.121 |
| GCAACTAA | 0.144 |
| GTCGTCTA | -0.132 |

| Sequence | PBM E-score |
| --- | --- |
| AGGCCTCA | -0.264 |
| CAAGAAGC | -0.0788 |
| AGTAAACA | -0.101 |
| CAGCATGG | -0.063 |
| GAAATACC | 0.275 |
| GAAGCCCC | 0.12 |
| AGGAGAGG | -0.261 |
| AGGCAGGG | -0.206 |
| ATAGGAAT | -0.159 |
| CAGCGAGC | -0.0812 |
| ACGCACCC | -0.126 |
| ATCAGAAT | -0.0846 |
| CTCTGTAC | -0.233 |
| CTACGTTC | -0.206 |
| AGCCCGCC | 0.359 |
| GAACGCTC | -0.233 |
| AGCAATCA | -0.123 |
| ATATGACC | 0.323 |
| CTTCATGA | -0.0192 |
| ATGTGCCC | 0.0009 |
| GAGAACGC | -0.113 |
| CCTGAGTC | -0.00996 |
| ACCATGTA | -0.0728 |
| ATCACCGG | 0.37 |
| ATTCCGTA | -0.00939 |

| Sequence | PBM E-score |
| --- | --- |
| ATTTGGTG | -0.258 |
| CTCGCCAA | -0.177 |
| CCGCATAG | 0.177 |
| GCTTAAAC | -0.0538 |
| AGGAGCAG | -0.206 |
| CATTACTC | 0.0649 |
| AAACCATT | -0.181 |
| GTAATGAA | -0.0616 |
| AAGTCCCT | -0.209 |
| GGAGAAGA | -0.113 |
| TCCCCTCA | -0.249 |
| CTTTGCTA | -0.202 |
| GCGTTTAC | -0.00093 |
| CGCCGTAA | 0.333 |
| CTGCTCGA | -0.287 |
| AAACTCGA | -0.0676 |
| CGCGTGCC | 0.00499 |
| CAGAAGAC | -0.187 |
| AGGTCCAG | -0.156 |
| TAGCCCCA | 0.0327 |
| ACCATATG | -0.223 |
| ACACATGG | -0.217 |
| CCCCCTCC | -0.137 |
| CTAAGGAA | -0.196 |
| GTGAGGCA | -0.152 |

| Sequence | PBM E-score |
| --- | --- |
| AGCGTTCG | -0.194 |
| ATAGGGCG | 0.122 |
| ATAAGCCA | -0.107 |
| CGCCCACA | 0.109 |
| ACAGGTGG | -0.058 |
| ATGCTACA | -0.336 |
| CCTGCACG | -0.0981 |
| AAGGTAGC | -0.166 |
| CGTAAGAA | -0.0783 |
| CTATTGAC | -0.129 |
| AGAGCTGC | -0.106 |
| AGTATAGC | -0.0654 |
| GATAATCC | 0.258 |
| CCGCCGGA | 0.309 |
| GCTCACGA | -0.197 |
| GATTGTCC | 0.16 |
| ATGCTGTC | -0.0122 |
| ATGCGTGA | -0.193 |
| AACCAAGC | -0.0977 |
| AACCACGC | 0.0178 |
| ACAGTTAC | -0.0633 |
| CGGTCGGA | 0.313 |
| ACAATATC | -0.00888 |
| CTATGGTA | 0.0378 |
| GACCATAA | -0.0175 |

| Sequence | PBM E-score |
| --- | --- |
| CGCGTACA | -0.103 |
| AGTGCGTC | 0.061 |
| TAAAGGAA | 0.0745 |
| CGTAGACC | 0.0176 |
| TGCATAAA | -0.183 |
| AAGACTCT | -0.223 |
| GGTTGTCA | -0.0232 |
| AGGACCTC | -0.259 |
| GCATTTGA | 0.0447 |
| ACTTCGTC | 0.00649 |
| AGTTCCGA | 0.374 |
| ACGGGGTA | 0.248 |
| CCGACTTC | 0.274 |
| ACTTGCCT | -0.18 |
| CACGAAGC | 0.0954 |
| GATGCGAC | 0.0208 |
| GTTTCCCA | -0.176 |
| AAAATTCC | 0.229 |
| CGCGGCAC | 0.288 |
| GTGGCGAA | 0.0266 |
| ACAGTCGT | -0.063 |
| GAACAGCA | -0.0955 |
| CCGAGGAC | 0.0394 |
| GAAACGTA | -0.0447 |
| ATGACAAC | -0.0645 |

| Sequence | PBM E-score |
| --- | --- |
| GCTCAACA | -0.167 |
| AAGCGACT | -0.294 |
| CTTAATCA | 0.0891 |
| ACGACATA | -0.313 |
| AGCAGCGA | 0.0908 |
| AACGTTGC | -0.0304 |
| GCAAACCC | 0.0735 |
| GTAAGGGA | -0.0267 |
| AAACGGGT | 0.205 |
| CCTATAGG | 0.0695 |
| CTTGCTGA | -0.196 |
| CACCGCCC | 0.41 |
| CGCGAGTC | -0.00594 |
| CGAGTGTA | -0.108 |
| ACACGGAT | 0.0865 |
| CTAGGACA | -0.135 |
| ACAATACT | -0.0818 |
| AAGCTTCA | -0.233 |
| GAAACATA | -0.0451 |
| AGGATGTC | -0.0421 |
| CTGGCGGA | 0.119 |
| CGATGACA | 0.0876 |

— the supplement of paper PMC3334620
